According to PubChem BioAssay AID651820 (National Center for Advancing Translational Sciences (NCATS), 2012):
Screen size: about 340,000 compounds; about 12,000 (3.5%) were called active. This list was built around the results that the source calls inconclusive (neither active nor inactive); the mix of calls is not that of the screen. The call rests on the fitted dose curve; in most records, active means well fitted inhibition curve with a large enough effect; inconclusive means small, poorly fitted or top-dose-only effect, or another doubt; inactive means no such curve, though single readings can be large or run the other way. Potencies of inconclusive entries are left out as doubtful fits.

assay: qHTS Assay for Inhibitors of Hepatitis C Virus (HCV); details: Huh7.5.1 HCVcc-Cre (HCVcc is cell-culture hepatitis C virus) infection, luciferase reporter, 44 h; series mostly up to 41.8 µM
Outline: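 Infectious HCV cell culture screen: compound-treated cells (1,000/well, pre-plated 4 h) are infected with HCVcc-Cre at roughly 0.5 moi and grown 44 h. Infection is quantified by luciferase signal after 15 min substrate incubation at room temperature.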
Potency means the concentration at half of the fitted maximal effect; tags describe the fitted curve by direction and shape.

| SMILES | Potency |
| --- | --- |
| CCc1cc2c(CN3CCN(C)CC3)cc(=O)oc2cc1O | inactive |
| N/C(=N\N=C/c1ccc(Br)cc1)N/N=C\c1ccc(Br)cc1 | inconclusive [inhibitor, single point] |
| O=C(NCc1ccc(Cl)s1)C1CCC(=O)N(CCc2cccc(F)c2)C1 (centres undefined) | inactive |
| COc1ccccc1/C=C/C=N/NC(=O)c1cc(-c2ccc(C)o2)[nH]n1 | active: 10 µM |
| Clc1ccc(Oc2nc3ccccc3n3cccc23)cc1 | inconclusive [inhibitor, partial curve] |
| CCOC(=O)C1(CCOc2ccccc2)CCN(Cc2cccc(O)c2)CC1 | inactive |
| COc1cc(-c2nc(C(=O)NC3CCCCC3)cc3c2[nH]c2ccccc23)cc(OC)c1OC | inconclusive [inhibitor, partial curve] |
| COc1ccc(CCNC(=O)c2cccc(S(=O)(=O)NC(C)c3ccccc3)c2)cc1 (centres undefined) | inconclusive [inhibitor, single point] |
| COc1ccc(OC)c(-n2c(=S)[nH]c3c(sc(=S)n3-c3ccccc3C)c2=O)c1 | inconclusive [inhibitor, full curve, poor fit] |
| CCOC(=O)N=Nc1c(O)n(Cc2ccccc2)c2ccccc12 | inactive |
| O=C1c2ccccc2NC(c2c(Cl)cccc2Cl)N1Cc1ccccc1 (centres undefined) | inconclusive [inhibitor, single point] |
| COc1ccc(C(=O)C(CN2CCOCC2)c2ccccc2)cc1F (centres undefined) | inconclusive [inhibitor, single point] |
| O=C(COC(=O)c1ccccc1C(=O)c1ccccc1)Nc1cccc([N+](=O)[O-])c1 | inconclusive [inhibitor, single point] |
| Cc1cccc(OCC(=O)Nc2sc3c(c2C#N)CCC3)c1 | inconclusive [inhibitor, partial curve] |
| Cc1ccc(C(=O)CSc2ccc(-c3ccccc3)nn2)cc1 | inconclusive [inhibitor, single point] |
| COc1cc(C(=O)Nc2nc(-c3ccc(F)cc3)cs2)ccc1OCC(=O)N1CCOCC1 | inconclusive [inhibitor, single point] |
| CC1CCN(CC(O)Cn2c3ccccc3c3ccccc32)CC1 (centres undefined) | inconclusive [inhibitor, partial curve] |
| COC(=O)c1cc(NC(=O)N2c3ccccc3Sc3ccccc32)cc(C(=O)OC)c1 | inconclusive [inhibitor, partial curve, poor fit] |
| Cc1ccccc1CCNC(=O)CCn1ccc2cc(S(=O)(=O)N3CCCC3)ccc21 | inconclusive [inhibitor, partial curve] |
